# Test results from PubChem BioAssay AID602179 (National Center for Advancing Translational Sciences (NCATS), 2012).
# About 360 (0.092%) of roughly 390,000 compounds were called active. Inconclusive results, whose numbers are uncertain, are shown with a selection of clear calls. Calls come from the whole dose curve; as a rule, active = well fitted inhibition curve with a large enough effect; inconclusive = small, poorly fitted or top-dose-only effect; inactive = no such curve, though single readings can be large or run the other way. Potencies beside an inconclusive call are fits to weak or partial responses and may not hold up.
# Molecular target: Isocitrate dehydrogenase [NADP] cytoplasmic (Homo sapiens) (UniProt O75874)
# Test: qHTS for Inhibitors of mutant isocitrate dehydrogenase 1 (IDH1): qHTS; note: nearly all actives have a fitted effect of over 65% in size
# Conditions: IDH1-R132H enzyme, NADPH consumption, diaphorase/resazurin fluorescence; series mostly up to 76.6 µM
# Summary of the method: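 IDH1-R132H (0.5 ug/mL dispensed) in pH 7.5 Tris buffer was preincubated 30 min with compound, then given a substrate mix of 0.016 mM NADPH and 2 mM alpha-KG for 80 min at room temperature; remaining NADPH was read by diaphorase/resazurin fluorescence.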
# Potency is the fitted concentration of half-maximal effect; tags give direction and shape of the fitted curve.
row,SMILES,Potency
1,Cc1ccc(OCC(=O)Nc2ccc(S(=O)(=O)Nc3ncccn3)cc2)c(C(C)(C)C)c1,"inconclusive: 50.1 µM [inhibitor, single point]"
2,COCCN1CCC(CNCc2cn(-c3cc(C)ccc3C)nc2-c2ccccc2)C1 (stereo not drawn),inactive
3,CCc1ccc(N(C(=O)c2ccco2)C(C(=O)NC2CCCC2)c2ccco2)cc1 (stereo not drawn),"inconclusive: 29.3 µM [inhibitor, full curve, poor fit]"
4,COc1cc2cnc(-c3ccsc3)c(-c3ccc(F)cc3)c2cc1OC,"inconclusive: 35.5 µM [inhibitor, partial curve]"
5,CCN(CC)CCCNC(=O)c1cn(CCOC)c(=O)c2c1c1ccccc1n2C,inactive
6,Cc1ccc(CNC(=O)CNC(=S)N(Cc2ccccc2)Cc2cccnc2)cc1,inactive
7,COc1cccc(C(C(=O)NC2CCCCC2)N(C(=O)c2ccco2)c2ccccc2OC)c1 (stereo not drawn),"inconclusive: 52.1 µM [inhibitor, partial curve]"
8,CCOc1cccc(/C(O)=C2/C(=O)C(=O)N(Cc3cccnc3)C2c2ccco2)c1 (stereo not drawn),inactive
9,CCN(CC)c1ccc(-c2nn3c(-c4n[nH]c5c4CCC5)nnc3s2)cc1,"inconclusive: 32.9 µM [inhibitor, partial curve]"
10,C[C@@H]1CN([C@H](C)CO)S(=O)(=O)c2ccc(C#Cc3ccccc3F)cc2O[C@H]1CN(C)C(=O)c1ccc2c(c1)OCO2,"inconclusive: 14.1 µM [inhibitor, full curve]"
11,CC(C)(C)c1cc(C(=O)NNc2ccc(OC(F)(F)F)cc2)n(Cc2ccccc2)n1,"inconclusive: 46.5 µM [inhibitor, partial curve]"
12,CCOc1ccc(-c2csc(NNC3=NCCCCC3)n2)cc1,"inconclusive: 44.7 µM [inhibitor, partial curve, poor fit]"
13,O=C(CCc1nc2ccccc2c(=O)[nH]1)NCCN1C(=O)S/C(=C\c2ccccc2Cl)C1=O,"inconclusive: 58.5 µM [inhibitor, single point]"
14,COc1cc(-c2cc(C(=O)Nc3ccc(C)c(S(=O)(=O)N4CCOCC4)c3)c3ccccc3n2)cc(OC)c1OC,"inconclusive: 5.21 µM [inhibitor, full curve, poor fit]"
15,CCCn1c(C2CCCN2c2nc(-c3cccc(Br)c3)cs2)nc2ccccc21 (stereo not drawn),"inconclusive: 15.8 µM [inhibitor, full curve]"
16,COC(=O)CSc1[nH]c2ccc(F)cc2c1[N+](=O)[O-],inactive
17,N#Cc1ccccc1COc1ccc(/C=C/C(=O)O)cc1,inactive
18,CCn1ncc(CN2CCC(C(=O)Nc3cccc(-c4cccc(F)c4)c3)CC2)c1C,inactive
